From the RNAGym collection of RNA variant scans (doi:10.7554/elife.90254)
Read counts are not given, so values of variants with three or more changes are uncertain.

B1: LINE1-mini (parent)
chain: GGCAGAGCUCAACACAGCGUGGCAAAGUGGCUGUGGCUAGACUGCC

Variants of: B1
Assay: self-cleavage, relative activity (ratio to wild type); higher = more cleavage; in vitro, sequencing; the parent is a self-cleaving ribozyme

**Q.** For UGCAGAGCUCAACACAGCGUGGCAAAGUCGCUGUAGCUAGACUGCC [G1U G29C G35A], which self-cleavage is on record?
**A.** 0.09

**Q.** For UGCAGACCUCAACACAGCGUGGCAGAGUGGCUGUGGCUAGACUGCC [G1U G7C A25G], which self-cleavage is on record?
**A.** 0.04

**Q.** Which self-cleavage does the source give for UGCAGAGCUCAACACAGCGUUGCAAAGUGGUUGUGGCUAGACUACC [G1U G21U C31U G44A] here?
**A.** 0

**Q.** With UGCAGAGCUCAACACAGCAUGGCAAAAUGGCUGGGGCUACAAUGCC [G1U G19A G27A U34G G40C C42A] as the variant, how does the self-cleavage read?
**A.** 0.01

**Q.** For UGCAGACCUCAACACAGCGUGGCAAAGUGGCUGUGGCUAGAGUGCC [G1U G7C C42G], which self-cleavage is on record?
**A.** 0.13

**Q.** For UGCAGAGCUCAACACAGCGUAGCAAAGUGCCUGUGGCUAGCCUGCC [G1U G21A G30C A41C], which self-cleavage is on record?
**A.** 0

**Q.** Which self-cleavage does the source give for UGCAGAGCUCAACACAGCGUGGCAAAGUGCCUCUGGCUAGACUGCC [G1U G30C G33C] here?
**A.** 0

**Q.** For UGCAGAGCUCAACACAGCGUUGCCAAGUGGCUGUGGCUAGACUGCC [G1U G21U A24C], which self-cleavage is on record?
**A.** 0.21

**Q.** Which self-cleavage does the source give for UGCAGAGCUCAACACAGCGUGGCAAAGUGACUGUGGCUAGACUGAC [G1U G30A C45A] here?
**A.** 0.48

**Q.** Which self-cleavage does the source give for UGCAGAGCUCAACACAGCGUGGCAAAGUGAGUGUCGCUAGACUGCC [G1U G30A C31G G35C] here?
**A.** 0.08

**Q.** For UGCAGAGCUCAACACAGCGUGGCAAACUGGCUGUGGCUAGACUUCC [G1U G27C G44U], which self-cleavage is on record?
**A.** 0.06

**Q.** Which self-cleavage does the source give for UGCAGACCUCAAUACAGCCUGGCAAAGUGGCUGUGGAUAGACUGCC [G1U G7C C13U G19C C37A] here?
**A.** 0.02

**Q.** Which self-cleavage does the source give for UGCAGAUCUCAACACAGCGUGGGAAAGUGGCUGUGACUAGACUGCC [G1U G7U C23G G36A] here?
**A.** 0.01

**Q.** With UGCAGAGCUCAACACAGCGUGGCAAAGUUGCUGAGGCUAGACUGCC [G1U G29U U34A] as the variant, how does the self-cleavage read?
**A.** 0.06

**Q.** For UGCAGAGCUCAACACAGCGUUGCAAAGUUGCUGUGGCUAGACUGCC [G1U G21U G29U], which self-cleavage is on record?
**A.** 0.31

**Q.** With UGCAGAGCUCAACACACCGUGCCAAAGUGGCUGUGGCUAGACUGCC [G1U G17C G22C] as the variant, how does the self-cleavage read?
**A.** 1

**Q.** For UGCAGAGCUCAACACAGCGUGACAAAGUGGCUGUGGCUAGAAUGCC [G1U G22A C42A], which self-cleavage is on record?
**A.** 0.03

**Q.** With UGCAGAGCUCAACACAGCGUGUCAAAGUGGCUGUGGCUAUACAGCC [G1U G22U G40U U43A] as the variant, how does the self-cleavage read?
**A.** 0

**Q.** Which self-cleavage does the source give for UGCAGAGCUCAACACAGCAUGGCAAAGGGGCUGUGGCUAGACUGCC [G1U G19A U28G] here?
**A.** 0.02

**Q.** Which self-cleavage does the source give for UGCAGAGCUCAACACAGCGUGUCAAAGUGGCUGUGCCUAGACUGCC [G1U G22U G36C] here?
**A.** 0.02

**Q.** With UGCAGAGCUCAACACAGCGUGCGAAAGUGGCUGUGGCUAGACUGCC [G1U G22C C23G] as the variant, how does the self-cleavage read?
**A.** 0.12

**Q.** With UGCAGAGCUCAACACAGCGUUUCAAAGUGGCUGUGGCUAGACUGCC [G1U G21U G22U] as the variant, how does the self-cleavage read?
**A.** 1.59

**Q.** Which self-cleavage does the source give for UGCAGAGCUCAACACAGCGUGGCAAAGUAGCUGGGGCUAGACUGCA [G1U G29A U34G C46A] here?
**A.** 0.5

**Q.** Which self-cleavage does the source give for UGCAGAGCUCAACACAGCAUGGCAACGUGGCUGUGGCUAGCAUGCC [G1U G19A A26C A41C C42A] here?
**A.** 0.01

**Q.** With UGCAGAGCUCAACACAGCGUUGCAAGGUGGCUGUGGCUAGACUGCC [G1U G21U A26G] as the variant, how does the self-cleavage read?
**A.** 0.58

**Q.** For UGCAGAGCUCAACACAGCGUGACAAAGUGGCUGUGGCAAUACUGCC [G1U G22A U38A G40U], which self-cleavage is on record?
**A.** 0.05

**Q.** Which self-cleavage does the source give for UGCAGAGCUCAACACAACGUGGCAAAGUAUCCGUGGCUAGACUGUC [G1U G17A G29A G30U U32C C45U] here?
**A.** 0.01

**Q.** Which self-cleavage does the source give for UGCAGAGCUCAACACAGCGUAGCAAAUUGGCUGAGGCUAGACUGCC [G1U G21A G27U U34A] here?
**A.** 0.17

**Q.** With UGCAGAGCUCAACACAGCGUCGCAAAGAGGCUGUGGCUAGACUGCC [G1U G21C U28A] as the variant, how does the self-cleavage read?
**A.** 0.2

**Q.** With UGCAGAGCUCAACACAGCGUGGCAAAUUGGCUGUGGCGAGACUGCC [G1U G27U U38G] as the variant, how does the self-cleavage read?
**A.** 0.01

**Q.** With UGCAGAGCUCAACACAGCGUGACAAAGUGGCUGUGGGUGGACUGCA [G1U G22A C37G A39G C46A] as the variant, how does the self-cleavage read?
**A.** 0

**Q.** Which self-cleavage does the source give for UGCAGAGCUCAACACAGCGUGCAAGGCUGGCUGUGGCUAGACUGCA [G1U G22C C23A A25G A26G G27C C46A] here?
**A.** 0.63

**Q.** Which self-cleavage does the source give for UGCAGAGCUCAACACAGCGUCGCAAAUUGGCUGUGGAUAGACUGCC [G1U G21C G27U C37A] here?
**A.** 0.02

**Q.** For UGCAGAACUCAACACAGCGUGGCAAAGUGGCUGAGGCUAGACUGCC [G1U G7A U34A], which self-cleavage is on record?
**A.** 0.02

**Q.** With UGCAGAUGUCAACACAGCGUGGCAAAUUGGCUGUGGCUAGACUGCC [G1U G7U C8G G27U] as the variant, how does the self-cleavage read?
**A.** 0.05

**Q.** For UGCAGAGCUCAACACAUCGUGCCAAAGUGGCUGUGGCUAGACCGCC [G1U G17U G22C U43C], which self-cleavage is on record?
**A.** 0.02

**Q.** For UGCAGAGCUCAACACAGCAUGGCAAAGUGGCUGCGGCUAGACUACC [G1U G19A U34C G44A], which self-cleavage is on record?
**A.** 0.04

**Q.** For UGCAGAGCUCAACACAGCGUGGCAAAGUGACUAUGGCUAGACUUCC [G1U G30A G33A G44U], which self-cleavage is on record?
**A.** 0.08

**Q.** With UGCAGAGCUCAACACAGCGUGUCAAAGUGGCUGUGGCUGGACUGCC [G1U G22U A39G] as the variant, how does the self-cleavage read?
**A.** 0.03

**Q.** Which self-cleavage does the source give for UGCAGAGCUCAACACAACGUGGCAAAGUGGAUGUGGCUAGACUGUU [G1U G17A C31A C45U C46U] here?
**A.** 0.05

**Q.** With UGCAGAACCCUACACAGCGUAACAAAGUGGCUGUGGCUAGACUGCC [G1U G7A U9C A11U G21A G22A] as the variant, how does the self-cleavage read?
**A.** 0.03

**Q.** For UGCAGAGCUCAACACAGCGUGGCAAAGUAGCUGUCGCUAGAUUGCC [G1U G29A G35C C42U], which self-cleavage is on record?
**A.** 0.07

**Q.** With UGCAGAGCUCAACACAGCGUGUCAAAGUGGCUGUGGCUAGACUGCU [G1U G22U C46U] as the variant, how does the self-cleavage read?
**A.** 0.29

**Q.** For UGCAGAGCUCAACACAGCUUGGCAAAGUGGCUAUGGCUAUACUGCC [G1U G19U G33A G40U], which self-cleavage is on record?
**A.** 0.02

**Q.** Which self-cleavage does the source give for UGCAGAGCUCAACACAGCGUGCCAAAGUGUCUGUGGCUAGACUGCC [G1U G22C G30U] here?
**A.** 0.01

**Q.** For UGCAGAGCUCAACACAGCGUGUCAAAAUGGAUGUGUCUGGCCUGCC [G1U G22U G27A C31A G36U A39G A41C], which self-cleavage is on record?
**A.** 0.01

**Q.** With UGCAGAUCUCAACACAGCGUGGCAAAGUGGCUGUGGCUAGACUUCC [G1U G7U G44U] as the variant, how does the self-cleavage read?
**A.** 0.05

**Q.** With UGCAGAGCUCAACACAGCGUGCCAAAGUGGCUGUGCAUAGACUGCC [G1U G22C G36C C37A] as the variant, how does the self-cleavage read?
**A.** 0.09

**Q.** Which self-cleavage does the source give for UGCAGAGCUCAACACAGCAUGGCAAAGUGGCUGUGGCUAGACAGCC [G1U G19A U43A] here?
**A.** 0.13

**Q.** For UGCAGAGCUCAACACAGCAUGGCAAAGUGGCUGUGGCUAGACUGAC [G1U G19A C45A], which self-cleavage is on record?
**A.** 0.19

**Q.** With UGCAGAUCUCAACAUCGCGUGGCAAAGUGGCUGGGGCUAGACUGCC [G1U G7U C15U A16C U34G] as the variant, how does the self-cleavage read?
**A.** 0.08

**Q.** For UGCAGAGCUCAACACAGCGUGGCAAAGUUGCUGUGGCCAGACUGCC [G1U G29U U38C], which self-cleavage is on record?
**A.** 0.23

**Q.** Which self-cleavage does the source give for UGCAGAGCUCAACACAGCGUGGCAAAGUGACUAUGGCUACACUGCC [G1U G30A G33A G40C] here?
**A.** 0.01

**Q.** For UGCAGAGCUCAACACAGCCUAGCAAACUGGCUGUGUCUAGGCUGCU [G1U G19C G21A G27C G36U A41G C46U], which self-cleavage is on record?
**A.** 0.02

**Q.** Which self-cleavage does the source give for UGCAGAGCUCAACACAGCGUGGCAAAUUGGCUAUGGCUAGACUGUC [G1U G27U G33A C45U] here?
**A.** 0.02

**Q.** Which self-cleavage does the source give for UGCAGAGCUCAACACAGCGUUGCAAAGAGGCUGUGGCUACACUGCC [G1U G21U U28A G40C] here?
**A.** 0.02
